The series concerns the molecule itself. Briefly: FRET or BRET; homo-FRET (steady-state fluorescence anisotropy of EGFP, time-domain, TCSPC) at the plasma membrane of living transfected Jurkat cells on PLL-coated slides, 37 °C; semi-quantitative, calibrated by monomeric LAT and dimeric CD8α.

B1: CD8α-EGFP (receptor)
chain: not shown
notes: EGFP is intracellular; also called dimeric control; source: Jurkat, transiently transfected, living cells; not shown: EGFP (with spacer GSGGGS), C-terminal, kept
Regarding B1, the “steady-state anisotropy, mean” value was found to be 0.243 and the “steady-state anisotropy, median” value worked out at 0.245.
